The whole screen tested about 280,000 compounds, of which about 100 (0.036%) were called active. This list was built around the results that the source calls inconclusive (neither active nor inactive); the mix of calls is not that of the screen. Calls follow the shape of the dose curve; as a rule, active = well fitted inhibition curve with a large enough effect in the signal ratio, with a control signal flat (not every such curve was filed as active); inconclusive = small, poorly fitted or top-dose-only effect, or effect the other way, or a change in a side signal; inactive = no such curve, though single readings can be large or run the other way; the % refers to the signal ratio. Where the call is inconclusive, the potency comes from a doubtful curve fit. A note “side channel” means that the fit belongs to a control or component signal, not to the main read-out.
target: Muscleblind-like protein 1 (Homo sapiens) (UniProt Q9NR56); assay: qHTS Assay for Inhibitors of MBNL1-poly(CUG) RNA binding; settings: TR-FRET MBNL1-His/biotin-(CUG)12 binding, 665/545 ratio; activity change, negative = inhibition: at 57.5 µM (top of the series)
Procedure, shortened: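 Ratiometric TR-FRET (665 over 545 nm, excitation 340 nm) tracks disruption of MBNL1-His/biotin-(CUG)12 complex after 60 min at room temperature, with compounds at 92 nM to 58 uM final.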
% is scaled to controls: 0 for no effect and ±100 for the full control effect; potency is read from the fitted curve at half-maximal effect; tags tell the direction and shape of the fitted curve or compound fluorescence and quenching.

Sequence of UniProt Q9NR56 (Q9NR56 whole entry, looked up): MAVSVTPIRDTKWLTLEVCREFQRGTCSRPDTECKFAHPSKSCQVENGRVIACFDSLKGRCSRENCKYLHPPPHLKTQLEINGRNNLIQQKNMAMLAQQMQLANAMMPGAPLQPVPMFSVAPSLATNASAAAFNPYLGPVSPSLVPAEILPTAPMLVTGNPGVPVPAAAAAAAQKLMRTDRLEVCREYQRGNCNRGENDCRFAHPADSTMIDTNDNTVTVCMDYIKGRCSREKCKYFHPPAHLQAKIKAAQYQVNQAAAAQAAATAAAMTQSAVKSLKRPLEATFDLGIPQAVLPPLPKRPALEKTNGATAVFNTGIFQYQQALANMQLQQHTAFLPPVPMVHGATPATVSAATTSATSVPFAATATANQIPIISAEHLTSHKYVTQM

Compound	Potency	activity change, negative = inhibition
Cc1ccc(C(=O)N/C(=C/c2ccco2)C(=O)NC2CCS(=O)(=O)C2)cc1 (stereo not given)	inconclusive: 35.5 µM [quencher, side channel, single point]	–
COCCn1c(C)cc(C(=O)COC(=O)c2ccccc2Br)c1C	inactive	–
COc1ccccc1C(=O)NC(C)c1ccccc1 (stereo not given)	inactive	–
OCCN1CCN(c2ncnc3sc(-c4ccccc4)cc23)CC1	inconclusive: 25.1 µM [quencher, side channel, single point]	–
COc1ccc2c(c1)c1nnc(SCC(=O)NC3CC3)nc1n2C	inconclusive: 3.55 µM [quencher, partial curve]	–
Cc1ccc(S(=O)(=O)NC(C)C(=O)Nc2cccc([N+](=O)[O-])c2)cc1 (stereo not given)	inconclusive: 17.8 µM [quencher, side channel, single point]	–
N#C/C(=C\c1c[nH]c2ccccc12)C(=O)NC1CCCC1	inconclusive: 10 µM [quencher, side channel, partial curve]	–
COc1ccc(CCN2C(=O)c3ccncc3C2=O)cc1OC	inconclusive: 12.6 µM [quencher, side channel, partial curve]	–
CC1(C)Cc2c(sc3ncn4c(=S)[nH]nc4c23)CO1	inactive	–
O=C(CSc1nnc(-c2ccc(O)cc2)o1)N1CCOCC1	inactive	–
CS(=O)(=O)c1ccc(C(=O)NCCN2C(=O)S/C(=C\c3cccnc3)C2=O)cc1[N+](=O)[O-]	inconclusive: 12.6 µM [quencher, side channel, partial curve]	–
COc1cccc2cc(/C(C)=N/NC(=O)c3ccco3)oc12	inconclusive: 25.1 µM [quencher, side channel, partial curve]	–
CC(=O)Nc1ccc(Cc2ccncc2)cc1	inactive	–
COc1ccc(OC)c(/C=C2\NC(=O)NC2=O)c1	inconclusive: 28.2 µM [quencher, side channel, single point]	–
Cc1ccc(N=Nc2c(O)c3ccccc3[nH]c2=O)c(S(=O)(=O)N(C)C)c1	inconclusive: 10 µM [quencher, side channel, partial curve]	–
CC(=O)c1c(O)ccc2c(-c3ccccc3)cc(=O)oc12	inconclusive: 20 µM [quencher, single point]	–
COc1cccc(NC(=O)c2c([N+](=O)[O-])cnn2C)c1	inconclusive: 17.8 µM [quencher, side channel, partial curve]	–
O=C(CCNS(=O)(=O)c1c(Cl)cccc1Cl)OCC(=O)c1ccccc1F	–	inconclusive: -21.8% [phenotype inactive]
CS(=O)(=O)Nc1ccc(C2=NN(C(=O)c3ccco3)C(c3ccc(F)cc3)C2)cc1 (stereo not given)	inconclusive: 20 µM [quencher, side channel, single point]	–
O=C(NCc1ccco1)C1CCN(c2ccc(S(=O)(=O)N3CCOCC3)cc2[N+](=O)[O-])CC1	inconclusive: 14.1 µM [quencher, side channel, partial curve]	–
O=C(Nc1ccc2c(c1)OCCO2)C1CCCN1S(=O)(=O)c1ccc(Cl)cc1 (stereo not given)	inactive	–
COc1cc(-c2nc3ccc(C)cn3c2Nc2ccc3c(c2)OCCO3)ccc1O	inactive	–

Compound	Potency	activity change, negative = inhibition
COc1ccc(CCNC(=O)COc2ncnc3cc([N+](=O)[O-])ccc23)cc1	inconclusive: 12.6 µM [activator, partial curve]	–
O=C(COC(=O)c1c2c(nc3ccccc13)CCN(Cc1ccccc1)C2)Nc1c(F)cccc1F	inconclusive: 31.6 µM [quencher, side channel, partial curve]	–
CC(=O)N(CCN1CCOCC1)Cc1cc2cc3c(cc2nc1Cl)OCO3	inconclusive: 79.4 µM [inhibitor, partial curve]	–
COC(=O)c1ccc(NC(=O)c2cccc(OC)c2)cc1	inactive	–
N=C(c1cccc([N+](=O)[O-])c1)N1CCCCCC1	inconclusive: 14.1 µM [quencher, side channel, partial curve]	–
O=C(CSc1nnc2n1CCCN2)c1ccc([N+](=O)[O-])cc1	inconclusive: 8.91 µM [quencher, partial curve]	–
CN(CC(=O)Nc1ccccc1F)S(=O)(=O)c1ccc2c(c1)n(C)c(=O)c(=O)n2C	inconclusive: 31.6 µM [fluorescent, side channel, single point]	–
Cc1ccccc1NC(=O)c1cccc(S(=O)(=O)Oc2ccc([N+](=O)[O-])cc2)c1	inconclusive: 39.8 µM [quencher, side channel, single point]	–
Cc1nn2c(-c3ccc(F)cc3)ccnc2c1Br	inactive	–
O=C(O)c1ccc(NC(=O)c2ccc3c(c2)C(=O)N(c2ccccc2)C3=O)cc1	inconclusive: 12.6 µM [quencher, side channel, partial curve]	–
COc1cc(C)cc(C(=O)O)c1C1=C(O)c2cccc(O)c2C(=O)C1=O	inconclusive: 15.8 µM [quencher, partial curve]	–
Cc1cccc2cc(CN(Cc3nnnn3C3CCCCC3)C3CCCC3)c3nnnn3c12	inactive	–
CC(C)c1cc(C(=O)N/N=C/C=C/c2ccccc2)n[nH]1	inconclusive: 35.5 µM [quencher, side channel, single point]	–
CCOc1ccc(-c2n[nH]c(=S)c3ccccc23)cc1	inactive	–
O=C(COc1ccc2c(c1)OCO2)Nc1nccs1	inactive	–
NC(=O)[C@@H]1[C@@H]2C(=O)N(c3ccc(F)cc3)C(=O)[C@@H]2[C@H]2C=Cc3ccccc3N21	inconclusive: 15.8 µM [quencher, side channel, single point]	–
CSc1sc(-c2nnc(SCC(=O)Nc3ccc(Cl)cc3)n2C)c2c1C=CCC2	inconclusive: 3.16 µM [fluorescent, partial curve]	–
COCCNC(=O)CN(Cc1ccc2c(c1)OCO2)C(=O)CCC(=O)Nc1nccs1	inactive	–
COc1ccc(/C=N/Nc2cc(C)nc(-n3nc(C)cc3C)n2)cc1	inactive	–
CCC(C)n1c(SCC(=O)/C(C#N)=C(\C)N)nc2ccccc2c1=O (stereo not given)	inconclusive: 39.8 µM [quencher, side channel, single point]	–
COc1cc(-c2nc3n(c(=O)c2C#N)CCS3)cc(OC)c1OC	inconclusive: 10 µM [quencher, side channel, partial curve]	–
COc1ccc(Cc2nnc(SCC(=O)Nc3ccccc3C#N)o2)cc1	inactive	–

Compound	Potency	activity change, negative = inhibition
O=C(O)c1ccccc1-c1ccc(/C=C/c2cc(C(F)(F)F)[nH]c(=O)n2)o1	inconclusive: 15.8 µM [quencher, side channel, partial curve]	–
Cc1nnc(NC(=O)CSc2cn(Cc3ccccc3)c3ccccc23)s1	inactive	–
O=C(N/N=C/c1ccc(Br)o1)c1cncc(Br)c1	inconclusive: 22.4 µM [quencher, side channel, single point]	–
N=c1c2c(n(Cc3ccccc3)c3c1CCC3)CCC2	inactive	–
Cn1c2ccccc2c(=O)c2ccc(-c3ccc4c(c3)OCO4)cc21	inconclusive: 17.8 µM [quencher, side channel, single point]	–
Cc1cccc(NS(=O)(=O)c2cc([N+](=O)[O-])ccc2C)n1	inconclusive: 12.6 µM [quencher, side channel, partial curve]	–
O=C(NC1CCCC1)C(NS(=O)(=O)c1cccc2nsnc12)c1ccccc1 (stereo not given)	inconclusive: 14.1 µM [quencher, side channel, partial curve]	–
CCN1C(=NCCCOC(C)C)N[C@@H](CCc2ccccc2)[C@H](C(=O)NCCCOC(C)C)[C@H]1C	inactive	–
CC(CCc1ccccc1)NC(=O)c1ccc(NC(=O)c2ccccc2)cc1 (stereo not given)	inactive	–
Cc1cccc2c1c1ccc3c(c1n2C)C(=O)C=CC3=O	inactive	–
COc1ccc(C2NC(=O)c3sc(=S)n(-c4ccccc4)c3N2)cc1 (stereo not given)	inconclusive: 28.2 µM [quencher, side channel, partial curve]	–
Cc1cc(N2CCN(C)CC2)nc2ccc(NC(=S)NCc3cccs3)cc12	inactive	–
COc1cc(Nc2ccc(C)cc2)c([N+](=O)[O-])nc1[N+](=O)[O-]	inconclusive: 0.158 µM [quencher, side channel, full curve, poor fit]	–
O=C(NC(=S)Nc1ccccn1)c1ccc([N+](=O)[O-])cc1	inconclusive: 3.16 µM [quencher, side channel, partial curve]	–
O=C(COC(=O)/C=C/c1cccc([N+](=O)[O-])c1)NCCCN1CCCC1=O	inconclusive: 12.6 µM [quencher, side channel, partial curve]	–
CCOc1ccc(C2C=C(c3ccc(C)cc3)Nc3ncnn32)cc1 (stereo not given)	inconclusive: 25.1 µM [quencher, side channel, single point]	–
C=CCn1c(SC)nnc1-c1cccc([N+](=O)[O-])c1	inconclusive: 10 µM [quencher, side channel, partial curve]	–
Cc1ccccc1Oc1cc(NC(=O)Cn2cnc([N+](=O)[O-])c2)cc([N+](=O)[O-])c1	inconclusive: 35.5 µM [quencher, side channel, single point]	–
O=C(O)C1CC1C(=O)Nc1nc2c(Cl)cccc2s1 (stereo not given)	inconclusive: 158 µM [inhibitor, partial curve]	–
N#C/C(=C\c1cccs1)C(=O)c1ccccc1	inactive	–
Cc1nnc(NC(=O)CSc2nccn2C)s1	inconclusive: 39.8 µM [quencher, side channel, single point]	–

— PubChem BioAssay AID2675 (National Center for Advancing Translational Sciences (NCATS), 2010)
